{"source": "ChEMBL document CHEMBL1157539", "about": "“Thousands of chemical starting points for antimalarial lead identification” (Nature, 2010)", "note": "Over roughly 13,000 compounds, “IFI” has its median near 4; the highest 2% begin near 17. The list shows a part of the results."}
{"assay": "GSK_TCMDC: Inhibition Frequency Index (IFI). The number of non-kinase HTS assays where a compound showed > 50 % inhibition, expressed as a percentage of the number of such assays in which the compound was tested (-0 is zero)", "format": "functional", "units": {"IFI": "%"}}
{"smiles": "COc1cc(NCC2(CNCc3cn(Cc4ccccc4)c4ccccc34)CCCCC2)nc2ccccc12", "IFI": 11.2}
{"smiles": "NS(=O)(=O)c1cccc(Br)c1", "IFI": 1.49}
{"smiles": "CC(C)Cc1cnc2nc(N)nc(N)c2c1", "IFI": 1.45}
{"smiles": "O=C(Nc1ccsc1)Nc1cccc(-c2cccc(-c3nc4cc(C(F)(F)F)ccc4[nH]3)c2)c1", "IFI": 8.08}
{"smiles": "O=C(NCCCN1CCC(N2CCCCC2)CC1)c1ccc(N2CCOc3ccccc32)s1", "IFI": 11.1}
{"smiles": "CNCCNCc1cccc(-c2ccc(-c3nc4cc(C(F)(F)F)ccc4[nH]3)s2)c1", "IFI": 8}
{"smiles": "COc1ccc(O)cc1/C=N/Nc1ccnc2cc(Cl)ccc12", "IFI": 0.74}
{"smiles": "COc1ccc(CCNC(=O)c2cc(C)ccc2O)cc1-c1ccc(C(C)(C)C)cc1", "IFI": 2.16}
{"smiles": "O=C(NCCCCN1CCN(CC=Cc2ccccc2)CC1)c1ccc(NC(=O)c2cc(Cl)cc(Cl)c2)cc1", "IFI": 5.22}
{"smiles": "CC(=O)c1sc(Cc2nc3ccccc3s2)nc1C", "IFI": 3.57}
{"smiles": "O=C(Nc1ccc2c(c1)CCN2C1CCN(Cc2ccc(O)cc2)C1)c1ccco1", "note": "(stereo not drawn)", "IFI": -0}
{"smiles": "CCOC(=O)N/N=C/[C@H](CCc1ccccc1)NC(=O)[C@H](CC(C)C)NC(=O)c1cc2cccc(OC)c2o1", "IFI": 4.55}
{"smiles": "CCCCn1c(Sc2ccc(C#N)c([N+](=O)[O-])c2)nnc1-c1ccc(OC)cc1", "IFI": 2.82}
{"smiles": "Cc1cc(N[C@@H](CC(C)C)C(=O)Nc2ccccc2)nc(NCCc2ccc(F)cc2)n1", "IFI": 15.9}
{"smiles": "CC(C)c1sc(N2CCN(C)CC2)nc1C(=O)NCCc1cccc(Cl)c1", "IFI": 6}
{"smiles": "Nc1ncc(OC2CCCCC2)c(N)n1", "IFI": 1.41}
{"smiles": "OC1CCC(Nc2ccc3ncc(-c4ccc(Cl)cc4)n3n2)CC1", "note": "(stereo not drawn)", "IFI": 9.02}
{"smiles": "O=C(Nc1ccc(Br)c(Cl)c1)c1cc([N+](=O)[O-])cc2cn[nH]c12", "IFI": 4.2}
{"smiles": "CN(Cc1ccc(NC(=O)NC2CCN(C(=O)/C=C/c3ccc(Cl)c(Cl)c3)CC2)cc1)C1CCOCC1", "IFI": 5}
{"smiles": "Cc1cccc(C)c1/N=C1\\NC(=S)N(c2cccc(Cl)c2)C12CCC(C(C)(C)C)CC2", "note": "(stereo not drawn)", "IFI": 0.72}
{"smiles": "O=C(Nc1cccc(-c2ccc(-c3nc4cc(F)ccc4[nH]3)cc2)c1)c1csnn1", "IFI": 5.41}
{"smiles": "O=C(NCCCc1ccccc1)c1csc(C2CCCN(C(=O)c3ccc(O)c(-c4ccccc4)c3)C2)n1", "note": "(stereo not drawn)", "IFI": 3.01}
{"smiles": "O=C(C=Cc1ccc(Br)cc1)N1CCC(CCN2CCC(c3c[nH]c4ccccc34)CC2)CC1", "IFI": 6.52}
{"smiles": "ON=C1CCc2cc(-c3cc(-c4ccc(OC5CCNCC5)cc4)oc3-c3ccncc3)ccc21", "IFI": 7.69}
{"smiles": "O=C(N[C@H]1CCN(CCc2ccc(O[C@H]3CCNC3)cc2)C1)c1ccc(Cl)c(Cl)c1", "IFI": 4.76}
{"smiles": "c1ccc(Oc2ccc(Nc3ccnc4cc(-c5ccc(CN6CCNCC6)o5)ccc34)cc2)nc1", "IFI": 7.97}
{"smiles": "CCC(C)CC(=O)Nc1ccc(OC)c(S(=O)(=O)N[C@@H]2CCN(C#N)C2)c1", "note": "(stereo partly drawn)", "IFI": -0}
{"smiles": "O=C(CCn1c2ccccc2c2ccccc21)NN=Cc1ccco1", "IFI": 3.45}
{"smiles": "NOCCCCOc1ccc(Br)cc1", "IFI": 0.71}
{"smiles": "Nc1c(Cl)cc(C(O)CNCCCCCCCCCc2ccccn2)cc1Cl", "note": "(stereo not drawn)", "IFI": 4.62}
{"smiles": "C[C@@H]1CN(C(c2cccc(O)c2)c2cccc(C(=O)N(C)c3cccc(F)c3)c2)[C@@H](C)CN1C(c1cccc(O)c1)c1cccc(C(=O)N(C)c2cccc(F)c2)c1", "note": "(stereo partly drawn)", "IFI": 6.52}
{"smiles": "Cc1ccccc1C1CCN(C2CCC(NC(=O)/C=C/c3cccc(Cl)c3F)CC2)CC1", "note": "(stereo not drawn)", "IFI": 13.3}
{"smiles": "CCCC(C)Nc1nc(C)cc(N[C@@H](Cc2ccccc2)C(=O)NCc2cccc(F)c2)n1", "note": "(stereo partly drawn)", "IFI": 9.09}
{"smiles": "FC(F)(F)c1ccccc1OCc1cc(-c2ccncc2)c(COc2ccccc2C(F)(F)F)cc1C1=CCNCC1", "IFI": 10.6}
{"smiles": "Cc1[nH]c(C)c(-c2ccc(Br)cc2)c(=O)c1Cl", "IFI": 0.91}
{"smiles": "Cc1cccc2nc(-c3ccc(-c4ccc(CNCCCN5CCCC5=O)cc4)cc3)[nH]c12", "IFI": 3.88}
{"smiles": "CN(Cc1cccc(O)c1)C1CCCN(c2cc(NC(=O)c3ccc(F)cc3)ccn2)C1", "note": "(stereo not drawn)", "IFI": 5}
{"smiles": "CN=C(N)c1ccc(NC(=O)C=Cc2ccc(C(=O)Nc3ccc(C(N)=NC)cc3)cc2)cc1", "IFI": 10.3}
{"smiles": "Nc1ncnc2occ(-c3ccc(NC(=O)Nc4cc(C(F)(F)F)ccc4F)cc3)c12", "IFI": 7.25}
{"smiles": "CCn1c(-c2nonc2N)nc2c(-c3cccc(NC(=O)Nc4ccccc4OC)c3)ncc(OCCCN)c21", "IFI": 20.5}
{"smiles": "O=C(CCCCCNC(=O)c1ccc(O)c(-c2ccc(Cl)c(Cl)c2)c1)NCc1cccc2ccccc12", "IFI": 0.74}
{"smiles": "CC(=O)Nc1ccc(C2NC(=O)NC(c3ccccc3)=C2c2nc3ccccc3s2)cc1", "note": "(stereo not drawn)", "IFI": 0}
{"smiles": "Cc1cc(N2CCN(CC3CCN(C)CC3)CC2)nc(Nc2ccc(Cl)cc2)n1", "IFI": 3.57}
{"smiles": "Cc1ccc(CNC(=O)c2cc3c(=O)n4ccccc4nc3n(CCCN3CCOCC3)c2=N)cc1", "IFI": 2.15}
{"smiles": "CCN(CC)CCNC(=O)/C(=C/C=C/c1cc2cc(Cl)c(Cl)cc2[nH]1)OC", "IFI": 7.63}
{"smiles": "CC1CCC(NCc2ccc3c(CNC4CCC(C)CC4)c(O)ccc3c2O)CC1", "note": "(stereo not drawn)", "IFI": 5.07}
{"smiles": "O=[N+]([O-])c1cccc(-c2nc(-c3ccc(Br)cc3)[nH]c2-c2ccc(Br)cc2)c1", "IFI": 0}
{"smiles": "CCOc1cc(C)ccc1N(C1CCN(CCCCNC(=O)c2ccc(-c3ccc(C(F)(F)F)cc3)cc2)CC1)S(=O)(=O)c1ccccc1", "IFI": 2.92}
{"smiles": "CCCCCCCc1ccc(-c2c(C)[nH]c(C)c(Cl)c2=O)cn1", "IFI": 1.83}
{"smiles": "N#Cc1cccc(NC(=O)NC2CCN(CCCCCNC(=O)/C=C/c3ccc(Cl)c(Cl)c3)CC2)c1", "IFI": 5.37}
{"smiles": "CNC(=O)c1cc(F)c(F)cc1Nc1nc(Nc2cccc(CS(C)(=O)=O)c2)ncc1Cl", "IFI": 3.85}
{"smiles": "Cc1ccc(Cn2ncc(N3CCNCC3)c(Cl)c2=O)cc1NC(=O)Nc1ccc(-c2ccccc2)cc1", "IFI": 4.2}
{"smiles": "CCN1CCC(N(Cc2ccc(-c3ccc(C(F)(F)F)cc3)cc2)C(=O)Cn2c(CCc3cccc(F)c3F)cc(=O)c3ccc(OCc4ccccc4)cc32)CC1", "IFI": 6.43}
{"smiles": "FC(F)(F)c1ccc(NC(=S)N2CCC(CCN3CCC(c4c[nH]c5ccccc45)CC3)CC2)cc1", "IFI": 6.47}
{"smiles": "CCCCCCCCn1ccc(=N)cc1", "IFI": 5.59}
{"smiles": "CCCC(CNC(=O)c1cc2c(Cl)cc(Cl)cc2[nH]1)CNc1cc(=O)c2ccccc2[nH]1", "note": "(stereo not drawn)", "IFI": 7.69}
{"smiles": "CN(N=Cc1ccccc1)C(=N)NCCCC#Cc1cccc(CN2CCCC2)c1", "IFI": 4.23}
{"smiles": "CC(C)C[C@@H](NC(=O)OC(C)(C)C)C(=O)Nc1ccc(Cc2ccc(NC(=O)[C@@H](CC(C)C)NC(=O)OC(C)(C)C)cc2)cc1", "IFI": -0}
